This is one part of the list.
What follows are sequences tested against T1, MBP-FoxP1dN (Mus musculus, UniProt P58462 326-579) (assay: PD-seq (MBP pull-down with sequencing); 20 mM Tris-HCl pH 7.5, 100 mM NaCl, 1.5 mM MgCl2, 0.4 uM protein, 0.1 uM dsDNA library, 30 min, room temperature, amylose pull-down; high values mean tight binding). Conditions: protein: recombinant; tags: His6-MBP; chain copies: 2; dsDNA, one strand shown.
T1 sequence: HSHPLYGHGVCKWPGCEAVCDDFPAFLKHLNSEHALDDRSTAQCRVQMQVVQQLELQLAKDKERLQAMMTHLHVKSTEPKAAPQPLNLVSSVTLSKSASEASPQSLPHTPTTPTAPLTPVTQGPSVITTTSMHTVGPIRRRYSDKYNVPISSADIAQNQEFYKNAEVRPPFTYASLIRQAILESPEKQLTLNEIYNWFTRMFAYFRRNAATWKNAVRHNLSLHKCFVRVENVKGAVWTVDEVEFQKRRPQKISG
In short: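 The N-terminus-lacking fragment of mouse FoxP3 or FoxP1 carried a His6-MBP tag and was expressed in E. coli. At 0.4 µM it was incubated with 0.1 µM Klenow-filled degenerate double-stranded DNA library for 30 min at room temperature in Tris pH 7.5 buffer with NaCl and MgCl2, and complexes were caught on amylose resin, washed three times, released with proteinase K, PCR-barcoded and Illumina-sequenced. Binding is reads-per-million enrichment of pull-down over input with replicates pooled.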
For “GATGATTGTTCTCCCAGCTGATGAATTGCGAGAATCGAGTAAACAAATTTTCCTAATCTTTCTGTTCAAGCGCCATCTAC”, the binding signal was 1.09 RPM ratio (pull-down/input). With “GATGATTGTTCTCCCAGCTGATGAATTCAAGCGATCGAGTAAACAAATTTTCCTAATCTTTCTGTTCAAGCGCCATCTAC” the binding signal was 0.847 RPM ratio (pull-down/input). With “GATGATTGTTCTCCCAGCTGATGAATTGAGCGCGTCGAGTAAACAAATTTTCCTAATCTTTCTGTTCAAGCGCCATCTAC” the binding signal was 0.952 RPM ratio (pull-down/input). “GATGATTGTTCTCCCAGCTGATGAATTGCAAATCTCGAGTAAACAAATTTTCCTAATCTTTCTGTTCAAGCGCCATCTAC” was tested, and the binding signal was 1.32 RPM ratio (pull-down/input). “GATGATTGTTCTCCCAGCTGATGAATTTGCTGCTTCGAGTAAACAAATTTTCCTAATCTTTCTGTTCAAGCGCCATCTAC” was tested, and the binding signal was 1.04 RPM ratio (pull-down/input). In the case of “GATGATTGTTCTCCCAGCTGATGAATTTACCACCTCGAGTAAACAAATTTTCCTAATCTTTCTGTTCAAGCGCCATCTAC”, the binding signal is reported as 1.09 RPM ratio (pull-down/input). “GATGATTGTTCTCCCAGCTGATGAATTCCTGCAATCGAGTAAACAAATTTTCCTAATCTTTCTGTTCAAGCGCCATCTAC” was tested, and the binding signal was 1 RPM ratio (pull-down/input). With “GATGATTGTTCTCCCAGCTGATGAATTTCGGTGTTCGAGTAAACAAATTTTCCTAATCTTTCTGTTCAAGCGCCATCTAC” the binding signal was 0.974 RPM ratio (pull-down/input). For “GATGATTGTTCTCCCAGCTGATGAATTCTCAAAGTCGAGTAAACAAATTTTCCTAATCTTTCTGTTCAAGCGCCATCTAC”, the binding signal was 0.816 RPM ratio (pull-down/input). “GATGATTGTTCTCCCAGCTGATGAATTAAAGCCTTCGAGTAAACAAATTTTCCTAATCTTTCTGTTCAAGCGCCATCTAC” was tested, and the binding signal was 0.916 RPM ratio (pull-down/input). For “GATGATTGTTCTCCCAGCTGATGAATTACCAAAGTCGAGTAAACAAATTTTCCTAATCTTTCTGTTCAAGCGCCATCTAC”, the binding signal was 0.959 RPM ratio (pull-down/input). With “GATGATTGTTCTCCCAGCTGATGAATTGTTAGGATCGAGTAAACAAATTTTCCTAATCTTTCTGTTCAAGCGCCATCTAC” the binding signal was 1.24 RPM ratio (pull-down/input). For “GATGATTGTTCTCCCAGCTGATGAATTTTTTGGGTCGAGTAAACAAATTTTCCTAATCTTTCTGTTCAAGCGCCATCTAC”, the binding signal was 0.836 RPM ratio (pull-down/input). With “GATGATTGTTCTCCCAGCTGATGAATTAACGGGCTCGAGTAAACAAATTTTCCTAATCTTTCTGTTCAAGCGCCATCTAC” the binding signal was 0.82 RPM ratio (pull-down/input). For “GATGATTGTTCTCCCAGCTGATGAATTGTGACACTCGAGTAAACAAATTTTCCTAATCTTTCTGTTCAAGCGCCATCTAC”, the binding signal was 1.12 RPM ratio (pull-down/input). “GATGATTGTTCTCCCAGCTGATGAATTTTAACATTCGAGTAAACAAATTTTCCTAATCTTTCTGTTCAAGCGCCATCTAC” was tested, and the binding signal was 0.959 RPM ratio (pull-down/input). For “GATGATTGTTCTCCCAGCTGATGAATTCCCTAAGTCGAGTAAACAAATTTTCCTAATCTTTCTGTTCAAGCGCCATCTAC”, the binding signal was 0.784 RPM ratio (pull-down/input). For “GATGATTGTTCTCCCAGCTGATGAATTTACTTACTCGAGTAAACAAATTTTCCTAATCTTTCTGTTCAAGCGCCATCTAC”, the binding signal was 1.42 RPM ratio (pull-down/input). “GATGATTGTTCTCCCAGCTGATGAATTATCCCGCTCGAGTAAACAAATTTTCCTAATCTTTCTGTTCAAGCGCCATCTAC” was tested, and the binding signal was 0.866 RPM ratio (pull-down/input). In the case of “GATGATTGTTCTCCCAGCTGATGAATTCTTCTGTTCGAGTAAACAAATTTTCCTAATCTTTCTGTTCAAGCGCCATCTAC”, the binding signal is reported as 0.827 RPM ratio (pull-down/input). In the case of “GATGATTGTTCTCCCAGCTGATGAATTTCGAGGTTCGAGTAAACAAATTTTCCTAATCTTTCTGTTCAAGCGCCATCTAC”, the binding signal is reported as 0.815 RPM ratio (pull-down/input). “GATGATTGTTCTCCCAGCTGATGAATTCGAATAGTCGAGTAAACAAATTTTCCTAATCTTTCTGTTCAAGCGCCATCTAC” was tested, and the binding signal was 0.864 RPM ratio (pull-down/input). “GATGATTGTTCTCCCAGCTGATGAATTTGGTTTATCGAGTAAACAAATTTTCCTAATCTTTCTGTTCAAGCGCCATCTAC” was tested, and the binding signal was 1.32 RPM ratio (pull-down/input). In the case of “GATGATTGTTCTCCCAGCTGATGAATTTCTTTCTTCGAGTAAACAAATTTTCCTAATCTTTCTGTTCAAGCGCCATCTAC”, the binding signal is reported as 0.908 RPM ratio (pull-down/input). In the case of “GATGATTGTTCTCCCAGCTGATGAATTCAATCGATCGAGTAAACAAATTTTCCTAATCTTTCTGTTCAAGCGCCATCTAC”, the binding signal is reported as 0.929 RPM ratio (pull-down/input). For “GATGATTGTTCTCCCAGCTGATGAATTTCCTACTTCGAGTAAACAAATTTTCCTAATCTTTCTGTTCAAGCGCCATCTAC”, the binding signal was 0.89 RPM ratio (pull-down/input). With “GATGATTGTTCTCCCAGCTGATGAATTGAGAATTTCGAGTAAACAAATTTTCCTAATCTTTCTGTTCAAGCGCCATCTAC” the binding signal was 0.82 RPM ratio (pull-down/input). In the case of “GATGATTGTTCTCCCAGCTGATGAATTTTTATACTCGAGTAAACAAATTTTCCTAATCTTTCTGTTCAAGCGCCATCTAC”, the binding signal is reported as 1.03 RPM ratio (pull-down/input). “GATGATTGTTCTCCCAGCTGATGAATTTCTTTGATCGAGTAAACAAATTTTCCTAATCTTTCTGTTCAAGCGCCATCTAC” was tested, and the binding signal was 0.956 RPM ratio (pull-down/input). For “GATGATTGTTCTCCCAGCTGATGAATTCGCGTCGTCGAGTAAACAAATTTTCCTAATCTTTCTGTTCAAGCGCCATCTAC”, the binding signal was 0.878 RPM ratio (pull-down/input). With “GATGATTGTTCTCCCAGCTGATGAATTGGGCTGTTCGAGTAAACAAATTTTCCTAATCTTTCTGTTCAAGCGCCATCTAC” the binding signal was 0.869 RPM ratio (pull-down/input). “GATGATTGTTCTCCCAGCTGATGAATTCTGCGAATCGAGTAAACAAATTTTCCTAATCTTTCTGTTCAAGCGCCATCTAC” was tested, and the binding signal was 0.931 RPM ratio (pull-down/input).

Source: publication PMC12820563, “FoxP3 forms a head-to-head dimer in vivo and stabilizes its multimerization on adjacent microsatellites”
